Measured values taken from US10889573B2, “Anthelmintic quinoline-3-carboxamide derivatives” (Bayer Animal Health GMBH, priority 2016, dated 2021).
Read-outs that look alike come from different tables or passages of the source. Some results were stated once for a whole list of compounds, not compound by compound. At least one structure is not confirmed: it was looked up by name or label, or the drawing left a doubt.

What was measured:
Haemonchus contortus = settings: after 5 days
Cooperia curticei = settings: after 5 days
[1] = system: Nippostrongylus brasiliensis; assay: In vitro assay 2: Nippostrongylus brasiliensis (NIPOBR), acetylcholine esterase readout
How it was run: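 Adult worms, washed in saline with antibiotics/antimycotic, were incubated in medium with compound (DMSO stock) at 10 μg/ml (10 ppm) or 1 μg/ml (1 ppm). Acetylcholine esterase activity in a medium aliquot was measured against a negative control as the anthelmintic readout.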

SMILES | activity (larval mortality) (Haemonchus contortus; 4 ppm) [%] | activity (larval mortality) (Haemonchus contortus; 20 ppm) [%] | activity (larval mortality) (Cooperia curticei; 4 ppm) [%] | activity (larval mortality) (Cooperia curticei; 20 ppm) [%] | activity (reduction of AChE compared to negative control) ([1]; 1 μg/ml) | activity (reduction of AChE compared to negative control) ([1]; 10 μg/ml)
CN(C)c1c(C(=O)N[C@H]2CCOc3ccccc32)cnc2c(-c3cccc(OC(F)(F)F)c3F)cccc12 [Example 48] | 80 | 100 | 80 | 90 | higher than 80% | higher than 80%
CN(C)c1c(C(=O)N[C@H]2CCOc3ccccc32)cnc2c(-c3cccc(Cl)c3F)cccc12 [Example 51] | 80 | 90 | 80 | 80 | higher than 80% | higher than 80%
CN(C)c1c(C(=O)N[C@H]2CCOc3ccccc32)cnc2c(-c3cc(F)c(F)cc3F)cccc12 [Example 57] | 100 | 100 | 100 | 100 | higher than 80% | higher than 80%
CN(C)c1c(C(=O)N[C@H]2CCOc3ccccc32)cnc2c(-c3cccc(F)c3Cl)cccc12 [Example 60] | 100 | 100 | 90 | 90 | higher than 80% | higher than 80%
CN(C)c1cccc(-c2cccc3c(N(C)C)c(C(=O)N[C@H]4CCOc5ccccc54)cnc23)c1 [Example 70] |  | 80 |  | 80 | higher than 80% | higher than 80%
COCCN(C)c1c(C(=O)N[C@H]2CCOc3ccccc32)cnc2c(-c3cc(Cl)cc(Cl)c3)cccc12 [Example 75] | 80 | 90 |  | 80 | higher than 80% | higher than 80%
COCCNc1c(C(=O)N[C@H]2CCOc3ccccc32)cnc2c(-c3cc(Cl)cc(Cl)c3)cccc12 [Example 76] | 100 | 100 | 100 | 100 | higher than 80% | higher than 80%
O=C1CN(c2c(C(=O)N[C@H]3CCOc4ccccc43)cnc3c(-c4cc(Cl)cc(Cl)c4)cccc23)CN1 [Example 77] | 100 | 100 | 100 | 100 | higher than 80% | higher than 80%
CN(C)c1c(C(=O)N[C@H]2CCOc3ccccc32)cnc2c(-c3ccc(F)c(F)c3F)cccc12 [Example 81] | 100 | 100 | 100 | 100 | higher than 80% | higher than 80%
O=C(N[C@H]1CCOc2ccccc21)c1cnc2c(-c3cccc(OC(F)(F)F)c3F)cccc2c1N1CCOCC1 [Example 83] | 90 | 100 | 100 | 100 | higher than 80% | higher than 80%
O=C(N[C@H]1CCc2ccccc21)c1cnc2c(-c3cc(Cl)cc(Cl)c3)cccc2c1NCCn1cccn1 [Example 125] |  | 80 | 90 | 90 | higher than 80% | 
CN(C)c1c(C(=O)N[C@H]2CCOc3ccccc32)cnc2c(-c3cc(Cl)cc(Cl)c3Cl)cccc12 [Example 132] | 100 | 100 | 100 | 100 | higher than 80% | higher than 80%
O=C(N[C@H]1CCOc2ccccc21)c1cnc2c(-c3cc(Cl)cc(Cl)c3Cl)cccc2c1N1CCOCC1 [Example 133] | 100 | 100 | 100 | 100 | higher than 80% | higher than 80%
CN(C)c1c(C(=O)N[C@H]2CCOc3ccccc32)cnc2c(-c3ccc(Cl)c(Cl)c3)c(F)ccc12 [Example 139] | 100 | 100 | 90 | 100 | higher than 80% | higher than 80%
CN(C)c1c(C(=O)N[C@H]2CCOc3ccccc32)cnc2c(-c3cccc(Cl)c3Cl)cc(F)cc12 [Example 146] | 90 | 90 | 80 | 80 | higher than 80% | higher than 80%
CN(C)c1c(F)ccc(-c2cccc3c(N(C)C)c(C(=O)N[C@H]4CCOc5ccccc54)cnc23)c1F [Example 151] | 90 |  | 100 |  | higher than 80% | 
CN(C)c1c(C(=O)N[C@H]2CCOc3cc(F)ccc32)cnc2c(-c3cc(Cl)cc(Cl)c3)cccc12 [Example 152] |  | 80 | 90 | 90 | higher than 80% | 
O=C(N[C@H]1CCOc2ccccc21)c1cnc2c(-c3cccc(Cl)c3F)c(F)ccc2c1N1CCOCC1 [Example 155] | 100 | 100 | 100 | 100 | higher than 80% | 
O=C(N[C@H]1CCOc2ccccc21)c1cnc2c(-c3ccc(Cl)c(Cl)c3)c(F)ccc2c1N1CCOCC1 [Example 156] | 80 | 90 | 90 | 100 | higher than 80% | 
O=C(N[C@H]1CCOc2ccccc21)c1cnc2c(-c3cccc(Cl)c3Cl)cc(F)cc2c1N1CCOCC1 [Example 166] | 90 | 100 | 90 | 100 | higher than 80% | 
O=C(N[C@H]1CCOc2ccccc21)c1cnc2c(-c3cccc(Cl)c3)c(F)ccc2c1N1CCOCC1 [Example 167] | 90 | 100 | 100 | 100 | higher than 80% | 
CN(C)c1c(C(=O)N[C@H]2CCOc3ccccc32)cnc2c(-c3cc(F)cc(Cl)c3)c(F)ccc12 [Example 169] | 90 | 100 | 100 | 100 | higher than 80% | 
CN(C)c1c(C(=O)N[C@H]2CCOc3ccccc32)cnc2c(-c3cccc(F)c3Cl)cc(F)cc12 [Example 176] |  | 80 |  | 90 | higher than 80% | 
CN(C)c1c(C(=O)N[C@H]2CCOc3ccccc32)cnc2c(-c3cc(F)cc(Cl)c3)cc(F)cc12 [Example 178] |  | 80 | 80 | 90 | higher than 80% | 
O=C(N[C@H]1CCOc2ccccc21)c1cnc2c(-c3cc(Cl)cc(Cl)c3)c(F)ccc2c1N1CCOCC1 [Example 192] | 100 | 100 | 100 | 100 | higher than 80% | 
O=C(N[C@H]1CCOc2ccccc21)c1cnc2c(-c3cccc(Cl)c3Cl)c(F)ccc2c1N1CCOCC1 [Example 200] | 100 | 100 | 100 | 100 | higher than 80% | 
O=C(N[C@H]1CCOc2ccccc21)c1cnc2c(-c3cc(Cl)cc(Cl)c3)cccc2c1N1CCS(=O)(=O)CC1 [Example 203] |  | 90 | 80 | 90 | higher than 80% | 
O=C(N[C@H]1CCOc2ccccc21)c1cnc2c(-c3cccc(Cl)c3Cl)c(Cl)ccc2c1N1CCOCC1 [Example 205] | 100 | 100 | 100 | 100 | higher than 80% | 
O=C(N[C@H]1CCOc2ccccc21)c1cnc2c(-c3cc(Cl)cc(Cl)c3)c(Cl)ccc2c1N1CCOCC1 [Example 206] | 80 | 100 | 80 | 100 | higher than 80% | 
